± gives the standard deviation of the averaged measurements. This is one part of the list.
These sequences were tested on PfAP2-I AP2 domain 3 (GST-tagged) (assay: gcPBM binding intensity (ln(normalized median fluorescence intensity)); higher = stronger DNA binding).
In short: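 Binding intensity is the highest Masliner-normalised natural-log median intensity over replicate spots in either probe orientation. To obtain it, GST-tagged P. falciparum DNA-binding domains made in E. coli were incubated for 1 h on an Agilent 4 × 180k array of primer-extended double-stranded 36-bp intergenic genomic probes plus negative controls. Detection used Alexa488 anti-GST antibody with scanning at 488 nm.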

| Sequence | gcPBM binding intensity (ln) |
| --- | --- |
| AGCTACACACCACAATGTACATAAATATATATGTGA [XGTACX_site1483] | 8.11 ± 0.39 |
| TCTTATGAATATCCCCGTACACATATATTTCTTATA [XGTACX_site6877] | 8.24 ± 0.54 |
| TTGTTTTTGTTCTTGGGTACTTAAATTATAAATGAT [XGTACX_site113] | 8.07 ± 0.45 |
| TATTGTATATACTATACACACACATACATACATACA [CACACA_site8172] | 8.89 ± 0.59 |
| AGAATATTTAATTCAACACACATACATATTTATTAA [CACACA_site5318] | 7.5 ± 0.45 |
| GGATAATATATTAGAACACACATATAGATGTAAAAA [CACACA_site6229] | 7.76 ± 0.73 |
| TACTTTATATAAAGATCAAAAAATAAATAATTATAA [TGCATGCA_negctrl_site446] | 7.42 ± 0.67 |
| GAAGCCCTATGAAAAGTGCGGTTCATGAACAAAGAA [GTGCAC_site9828] | 9.21 ± 1 |
| CAAATATACATATGTAGTACATGTTGTAGATAATTT [XGTACX_site2790] | 8.01 ± 0.5 |
| ATATATTTATATAAATGTACATACAGCACATTTATA [XGTACX_site4725] | 8.28 ± 0.085 |
| TATATATCATATGATACATGCAACAAAATGCATAAT [TGCATGCA_site205] | 8.17 ± 0.83 |
| TACTTACCAAAATACACACACACACTAGATATATAA [CACACA_site5096] | 7.92 ± 0.39 |
| ATGTATATTACTCATTGTACTTATATTTTCTTATTA [XGTACX_site8897] | 7.87 ± 0.56 |
| GTATTTATAAATTATAGTACTTTGCGTATCATATAT [XGTACX_site7358] | 7.9 ± 0.3 |
| ATTTTATATCTGGATAGTACTTTAATATTTCAAATG [XGTACX_site7304] | 7.86 ± 0.36 |
| GGATATTCATTAACCACACACACAAAAAAAATAAAA [CACACA_site3800] | 7.96 ± 0.3 |
| ATGGATTATACGTGCACACATATATACAAATAAATA [CACACA_site640] | 11.19 ± 0.035 |
| ACCATTTGTAGGTAAACACACATTATTATTAATATC [CACACA_site2635] | 7.83 ± 0.52 |
| TAAAATGCAATCTGAACACACATATTTTTTTAATAT [CACACA_site6922] | 7.39 ± 0.54 |
| TACATCATACGAACAGTGCATATTATTATTGTTCTG | 9.12 ± 0.057 |
| AAAAATAATTATTCGTGTACAAAAAAAAAAATATAA [XGTACX_site439] | 7.88 ± 0.6 |
| ATGCAAATGTGCATCACACACACTAATGGGTATGTA [CACACA_site2893] | 8.55 ± 0.45 |

| Sequence | gcPBM binding intensity (ln) |
| --- | --- |
| GGAATATATATACATACACACATATATATATATATA [CACACA_site1666] | 9.26 ± 0.43 |
| ATTTTTTATGTTAATGCATGCTCATGTGTATTTCAT [TGCATGCA_site751] | 8.16 ± 0.86 |
| AAAGTAATAATGATTTGTACATATATATATATATAT [XGTACX_site8821] | 9.04 ± 0.63 |
| AAATATAACATCATCACACACATATACTTTATATGC [CACACA_site1126] | 7.58 ± 0.59 |
| AGCTTCATATTATGGAGTACTATTAAAAATAAATAA [XGTACX_site2649] | 7.77 ± 0.28 |
| AGATATTATAAAATATGTACATATATATATATATAT [XGTACX_site2088] | 9.22 ± 0.71 |
| TAATTAGATTATTTTTGTACATATTATTATAGGTTA [XGTACX_site2077] | 7.59 ± 0.26 |
| TTATCTTTTTTCGTTTGTACGTAACCATATTACTAT [XGTACX_site8853] | 7.93 ± 0.68 |
| TTTCTATTTATTAATACATGCAAAATAAAGTAAAGT [TGCATGCA_site209] | 8.07 ± 0.8 |
| ATATATCAATATGGAATATATATATATATATATATA [TGCATGCA_negctrl_site502] | 9.35 ± 0.67 |
| TTTTGGTTTTGTTCTACACACATAAAAAAAAAAAAG [CACACA_site2276] | 7.89 ± 0.4 |
| ATATATATAAATAAATGTACATAAATAATATATTAT [XGTACX_site5419] | 8.06 ± 0.72 |
| TATATATATATATATATATTTATGTATTTATTTAAT [TGCATGCA_negctrl_site179] | 9.41 ± 0.64 |
| TTATTTTTATATTTTAATTTTAAAAAAATTTTAATT [CACACA_negctrl_site777] | 7.34 ± 0.33 |
| ATTATACATATTATATGTACATATATAAATAAATAA [XGTACX_site7076] | 7.79 ± 0.42 |
| TTAATTTATTATCTTTGTACACAATTAAAAAAAAAA [XGTACX_site3469] | 7.93 ± 0.23 |
| TTTTATTATAATAATTGTACAAAAATTATTTAATAT [XGTACX_site6054] | 7.62 ± 0.3 |
| ATAAATATACATTATACCGACCATGTGGATATTATA [XGTACX_negctrl_site241] | 7.76 ± 0.56 |
| AAAAAAAAAAAAAAAAGTACAAGCATTGCGTTTTAA [XGTACX_site6075] | 8.7 ± 0.58 |
| AGAAAAAAAAAAAAAAAAATATATATATATATATAT [TGCATGCA_negctrl_site411] | 9.46 ± 0.39 |
| GTATATATATACCATTGTACTTTCGTAAAAATATTT [XGTACX_site4846] | 7.82 ± 0.61 |
| AAAAAAAAAAAAAAAACACACATACACGCACGCACA [CACACA_site7569] | 9.31 ± 0.5 |

| Sequence | gcPBM binding intensity (ln) |
| --- | --- |
| AAATTACACATCCATACACACATATTTTTTTTAATT [CACACA_site5242] | 7.97 ± 0.72 |
| GTATATATGTATATGTGTACACATATTCTTAACTCA [XGTACX_site309] | 8.12 ± 0.35 |
| ATATAAATTGGCAATAGTACATAAAGGCATAGAAAG [XGTACX_site2674] | 8.29 ± 0.69 |
| AGCTGAAAAAAAAGCTTGCACACGTATTTGCTTTAT [CACACA_site1512] | 7.83 ± 0.76 |
| AATATGTAGTAATCAAGTACTAATGTCTTAATTCGG [XGTACX_site308] | 7.49 ± 0.56 |
| GTTTTTTATATAAGGTGGTCAACATTGTAATGTTAA [XGTACX_site3204] | 8.07 ± 0.5 |
| CATATTATATTCTGCTTACACACATATATATATATA [CACACA_site3059] | 9.36 ± 0.29 |
| TTTTTTTGTTATATCCTGCACTTCTTAACTATATTA [GTGCAC_site9807] | 9.15 ± 0.52 |
| AATAATAAGAATAACGCATGCACATATAATATAGAA [TGCATGCA_site3] | 8.28 ± 0.79 |
| ACGATGAATATGTAAAGTACGCAAATGTAACAATAT [XGTACX_site728] | 8.12 ± 0.77 |
| TCATAGGTTCAAAAGGGTACATTAATACATACATAT [XGTACX_site2236] | 7.78 ± 0.53 |
| AAATAAAAAAAGGGAACATGCAATATGTACAAATAT [TGCATGCA_site869] | 8.46 ± 0.64 |
| GTAGTTACATATAGGGTGCTCCAATAGTTGACCTCG | 8.46 ± 0.15 |
| TCTTTTTTCTTTTTTTCACACATTATTTTTTAAATA [CACACA_site5197] | 7.95 ± 0.51 |
| CATATATATTGATATGCACACCTATGTATTGATGTA [CACACA_site8269] | 8.85 ± 0.042 |
| AGCATTTTTCATTTTGCACACATGTTTTATGGGTAT [CACACA_site5839] | 9.725 ± 0.007 |
| TATATGGAAAATTAAAGTACTAAAGAATAAATAGAA [XGTACX_site8796] | 8.06 ± 0.33 |
| TATAAAATAAATTGTGCACACATATTTATAAATATG [CACACA_site2330] | 10.71 ± 0.078 |
| TATAGATACATATACACACACACACCGACATATATA [CACACA_site9138] | 7.84 ± 0.45 |
| AATAATAGAAGCACCCACCCACCACCACCCACACAT [CACACA_negctrl_site1033] | 9.9 ± 0.29 |
| GAGAAACTTGTTTAAACATGCACAAAAAAAAAAAAA [TGCATGCA_site340] | 8.38 ± 0.53 |
| TATTTTATTATTATTATTTCTTTATAGTGTATTCTA [CACACA_negctrl_site517] | 7.5 ± 0.71 |

| Sequence | gcPBM binding intensity (ln) |
| --- | --- |
| TATTTTATTATTATTATTAGTATGATTTCTTTATAG [CACACA_negctrl_site550] | 7.49 ± 0.53 |
| GGATAGGCATAACATAGTACGTACAAATATATATAT [XGTACX_site454] | 9.01 ± 0.071 |
| TTTTCGTAACTGATTCAACACACAAAAGGGGGAAAA [CACACA_site8517] | 8.44 ± 0.25 |
| AATATATAGCTAAAAACACACAAATATATACACATA [CACACA_site9203] | 7.62 ± 0.62 |
| TTTTTTGTACCAAAAAAAAAAAAAAGAAAAAAAAAC [CACACA_negctrl_site1416] | 7.82 ± 0.43 |
| TTATAAAAATTTAGTTGTACATGTCAAATTATCAAT [XGTACX_site7229] | 7.74 ± 0.33 |
| TAAGACAATAAATGCTGTACAATTGAATATCTTGGA [XGTACX_site636] | 7.43 ± 0.67 |
| TATATCCCTTAGAATACACACCCATATGAGTGTGAA [CACACA_site8965] | 7.49 ± 0.45 |
| TAATGATAAATACATACACACAAAAAATGATATATA [CACACA_site7258] | 7.54 ± 0.49 |
| AATGTAAAATCTTCATATACATTTAAGTCTGTATTT [TGCATGCA_negctrl_site183] | 7.14 ± 0.68 |
| ACAAAAATTAAATAAAGTACATTTTTAAAATACGTA [XGTACX_site3880] | 7.66 ± 0.43 |
| AAAAGCACAAAAAATACACACACAAAAAATAAAAAA [CACACA_site8545] | 7.8 ± 0.66 |
| TTAACAAATAAACACACACACACACCCAAAAAAAAA [CACACA_site8068] | 8.43 ± 0.22 |
| ATAAAAAAAAAAACAGTAAAATTATAATTATAATTA [TGCATGCA_negctrl_site356] | 7.61 ± 0.81 |
| ATTATTTGAAACTATTGTACATTTAAAAACATTTTT [XGTACX_site4896] | 7.76 ± 0.42 |
| TGGAACCTTTAAAATACACACCCAAATCCTTTGAAA [CACACA_site7671] | 7.57 ± 0.41 |
| AAAAAAAAAAAAAACACACACATATAAATATAAATA [CACACA_site6972] | 8.15 ± 0.45 |
| ATTGGACTATAAATAGGTACACATATATATATATAT [XGTACX_site7562] | 9.38 ± 0.52 |
| TCATATATTCAAAAATTTAAAGTTAATAAAACTTGA [CACACA_negctrl_site1546] | 7.11 ± 0.6 |
| CATATATATTTTATTTGTACGTATAAAAAAACAAAA [XGTACX_site4253] | 8.03 ± 0.17 |
| ATATGAAAAAGAACTTGTACTAAAGTGGCATATTAT [XGTACX_site8520] | 8.57 ± 0.38 |
| TAAATACTTGTATATAGTACAAGTTGTTTTTTTTAA [XGTACX_site5643] | 7.21 ± 0.33 |
